In PubChem BioAssay AID1645882 (National Center for Advancing Translational Sciences (NCATS), 2021):
Screen size: about 16,000 compounds; about 120 (0.75%) were called active. Not shown: some 4% with an inconclusive outcome. Calls follow the shape of the dose curve; as a rule, active = well fitted inhibition curve with a large enough effect; inconclusive = small, poorly fitted or top-dose-only effect; inactive = no such curve, though single readings can be large or run the other way. Some of the results follow. *1 amine or outer side, *2 acyl side, *3 side chain or, on linkers, in order; H or OH if unused. Where a SMILES comes first, the peptide text is derived from it. Bridges are numbered along the chain shown (N, C = ends). Roman numbers before positions name the chains, in order. [ ]: non-standard residue; d: D form. Actinocin(9to1) = Cc1c2oc3c(C)ccc(C(=O)[*:1])c3nc-2c(C(=O)[*:2])c(N)c1=O; NMeV = CN[C@H](C(=O)O)C(C)C; Sar = CNCC(=O)O

target: Rap guanine nucleotide exchange factor 3 (Homo sapiens) (UniProt O95398); experiment: Validation qHTS for antagonist of cAMP-regulated guanine nucleotide exchange factor 3 (EPAC1); conditions: EPAC1 Rap1B-BODIPY-GDP exchange, fluorescence; series mostly up to 150 µM; activity change, negative = inhibition: at the top concentration; also: nearly all actives have a fitted effect of over 75% in size
Summary of the method: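 EPAC1 (100 nM) mixed with 250 nM RAP1B-BODIPY-GDP and 50 uM GDP; compounds in concentration series, 5 min at room temperature. Fluorescence (ex 480/em 540 nm) read every 5 min for 30 min; normalized to ATA control and DMSO.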

UniProt O95398, sequence (O95398 whole entry, looked up): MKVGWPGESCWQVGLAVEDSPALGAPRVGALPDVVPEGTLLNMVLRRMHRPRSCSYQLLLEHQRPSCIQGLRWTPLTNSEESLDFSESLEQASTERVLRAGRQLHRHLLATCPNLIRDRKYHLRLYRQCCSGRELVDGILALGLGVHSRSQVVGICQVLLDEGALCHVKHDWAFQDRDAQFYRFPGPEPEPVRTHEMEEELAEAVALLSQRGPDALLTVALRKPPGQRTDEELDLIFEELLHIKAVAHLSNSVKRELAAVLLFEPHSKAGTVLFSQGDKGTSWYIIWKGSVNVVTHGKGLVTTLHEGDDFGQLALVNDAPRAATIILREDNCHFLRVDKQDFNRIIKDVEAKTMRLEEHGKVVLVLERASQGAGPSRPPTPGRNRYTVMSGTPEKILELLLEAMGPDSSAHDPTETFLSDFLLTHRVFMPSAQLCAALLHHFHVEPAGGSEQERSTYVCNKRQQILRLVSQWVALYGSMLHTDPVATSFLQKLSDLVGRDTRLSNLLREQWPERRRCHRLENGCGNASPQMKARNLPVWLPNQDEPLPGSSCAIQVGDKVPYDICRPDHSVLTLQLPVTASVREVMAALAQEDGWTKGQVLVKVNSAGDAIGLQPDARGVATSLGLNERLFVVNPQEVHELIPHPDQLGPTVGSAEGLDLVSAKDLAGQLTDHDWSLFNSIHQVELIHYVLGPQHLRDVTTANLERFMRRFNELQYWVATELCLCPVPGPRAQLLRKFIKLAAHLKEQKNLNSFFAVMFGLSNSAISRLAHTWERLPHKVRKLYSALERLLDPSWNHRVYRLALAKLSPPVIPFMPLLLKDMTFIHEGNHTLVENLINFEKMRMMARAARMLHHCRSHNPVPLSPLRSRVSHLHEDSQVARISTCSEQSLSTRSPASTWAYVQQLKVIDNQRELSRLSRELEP

Row | SMILES | activity change, negative = inhibition
1 | O=C(c1ccncc1)N1CCC2(CCCN(c3cccc(-c4ccccc4)c3)C2)CC1 | inactive: 3.06%
2 | COC(=O)N1CCC[C@@]2(CCN(C(=O)Nc3ccc(OC)cc3)C2)C1 | inactive: 22.9%
3 | Cc1[nH]c2ccccc2c1/C=C/c1cnc2ccccc2n1 | inactive: 12%
4 | N=C(N)N1CCc2ccccc2C1 | inactive: 15.9%
5 | CCn1c(-c2ccccc2F)nc2cc(NC(C)=O)cc(C(=O)N3CCCC3c3nccs3)c21 (stereo not given) | inactive: 14.6%
6 | CC(NC(=O)c1cccnc1)c1nnc2n1CCN(Cc1ccc(F)cc1F)CC2 (stereo not given) | inactive: 14.7%
7 | O=C([C@@H]1CC=C[C@@H]2CCN(C3CCCCC3)C(=O)[C@@H]21)N1CCOCC1 | inactive: -2.53%
8 | COCCCOc1cc(C[C@@H](C[C@H](N)[C@@H](O)C[C@H](C(=O)NCC(C)(C)C(N)=O)C(C)C)C(C)C)ccc1OC | inactive: 25.7%
9 | CNCCCCOc1ccccc1Cc1ccccc1 | inactive: 2.14%
10 | CN(CC(=O)N1CCOCC1)Cc1c(Cl)cccc1NC(=O)c1ccccc1 | inactive: 26%
11 | C#C[C@]1(OC(C)=O)CC[C@H]2[C@@H]3CCC4=CC(=O)CC[C@@H]4[C@H]3CC[C@@]21C | inactive: -7.55%
12 | CCCCOC(=O)c1ccc(O)cc1 | inactive: 4.11%
13 | COc1ccccc1CNc1cc(-c2cccc(NS(C)(=O)=O)c2)ncn1 | inactive: 0.819%
14 | CCCc1nc2c(C)cc(-c3nc4ccccc4n3C)cc2n1Cc1ccc(-c2ccccc2C(=O)O)cc1 | inactive: 18.6%
15 | CCC(O)c1ccccc1 (stereo not given) | inactive: 16%
16 | O=C(O)Cc1ccc(O)c(O)c1 | inactive
17 | COCC(=O)Nc1cc(C(=O)N2CCc3c(Cl)cccc3C2)c2c(c1)nc(-c1ccncc1)n2C | inactive: 3.39%
18 | C[C@@H]1[C@H](O)[C@@H](C)/C=C/C=C\C=C\C=C\C=C\C=C\C=C\[C@H](O[C@@H]2O[C@H](C)[C@@H](O)[C@H](N)[C@@H]2O)C[C@@H]2O[C@](O)(C[C@@H](O)C[C@@H](O)[C@H](O)CC[C@@H](O)C[C@@H](O)CC(=O)O[C@H]1C)C[C@H](O)[C@H]2C(=O)O (stereo in doubt) | inactive: 40.2%
19 | Cc1ncnc2nc[nH]c12 | inactive: 14.6%
20 | Nc1ccccc1N | inactive: 47% [at 320 µM]
21 | COc1ccccc1-c1cc(=O)c2cccc(OC)c2o1 | inactive: 21%
22 | COCC1CCCN(Cc2ccc3c(c2)CN(C(=O)c2sc(C)nc2C)CCO3)C1 (stereo not given) | inactive: 5.65%
23 | COc1ccc(CCN(C)C(=O)c2cnn(-c3nccc(-c4ccc(C)o4)n3)c2C)cc1OC | inactive: -0.877%
24 | COC(=O)CC1C(=O)NCCN1C(=O)CN1Cc2ccccc2OC(c2ccccc2)C1 (stereo not given) | inactive: 4.19%
25 | N[C@](CC1c2ccccc2Oc2ccccc21)(C(=O)O)[C@@H]1C[C@@H]1C(=O)O | inactive: 0.27%

Row | SMILES | activity change, negative = inhibition
26 | CCCCC1C(=O)N(c2ccccc2)N(c2ccccc2)C1=O | inactive
27 | O=c1c(-c2cccs2)nc2cnc(N3CCOCC3)nc2n1CCc1ccccc1 | inactive: 8.83%
28 | Nc1ncnc2c1c(I)cn2C1OC(CO)C(O)C1O (stereo not given) | inactive
29 | Cc1cc(-c2cc(F)cc3c2OC(CNC(=O)[C@@H]2CCC(=O)N2)C3)ccc1F (stereo not given in full) | inactive: 8.96%
30 | O=C(c1ccc(N2CCC(NCCCn3ncc4ccccc43)CC2)cc1)N1CCOCC1 | inactive: 11.5%
31 | O=C(O)/C=C/C=C/c1ccccc1 | inactive: 12.6%
32 | NC(C(=O)NC1C(=O)N2C(C(=O)O)=C(Cl)CSC12)c1ccccc1 (stereo not given) | inactive: 6.94%
33 | O=C(CO)[C@@H](O)[C@H](O)[C@@H](O)CO | inactive: 10.1%
34 | CC(=O)Oc1cc(C)c(OC(C)=O)c2ccccc12 | inactive: 7.02%
35 | O=C(OCc1ccccc1)c1cccnc1 | inactive: -20.5%
36 | COc1ccc(-c2nc3cnc(N4CCN(C)CC4)nc3n(CCc3ccccc3)c2=O)cc1 | inactive: 18.8%
37 | Cc1nc2cnc(Oc3ccccc3)nc2n(C)c1=O | inactive: -0.535%
38 | N=C(N)SCCN | inactive
39 | CN(C)c1ccc2ccc3cccc4ccc1c2c34 | inactive: -2.92%
40 | CC(=O)N[C@H]1[C@H]([C@H](O)[C@H](O)CO)OC(C(=O)O)=C[C@@H]1N=C(N)N | inactive: 19.3%
41 | CCOc1ccc(N=Nc2ccc(N)cc2N)cc1 | inactive: -11.5%
42 | O=C1CC[C@@]23/C=C/C(=O)NCCCCNCCCNC(=O)/C=C/c4ccc(c2c4)OC3C1 (stereo not given in full) | inactive: 16.8%
43 | COc1ccccc1CCn1c(=O)c(-c2cccc(F)c2)nc2cncnc21 | inactive: 8.36%
44 | CC[N+](CC)(CCNC(=O)C(=O)NCC[N+](CC)(CC)Cc1ccccc1Cl)Cc1ccccc1Cl | inactive
45 | CN(C)c1ncc2nc(-c3cccs3)c(=O)n(C)c2n1 | inactive: 24.5%
46 | N=c1ccn2c(n1)OC1C(O)C(CO)OC12 (stereo not given) | inactive
47 | CCN1CCCC1CNC(=O)c1cnn(-c2nccc(-c3cc4ccccc4o3)n2)c1C (stereo not given) | inactive: 4.99%
48 | O=C(c1cc(C(F)(F)F)cc(C(F)(F)F)c1)N1CCC2(CC1)CN(Cc1ccccc1)C2 | inactive: 6.12%
49 | OCC(S)CS (stereo not given) | inactive: 8.06%
50 | Cc1noc(C)c1-c1cc(NCc2cccs2)ncn1 | inactive: 5.91%

Row | SMILES | activity change, negative = inhibition
51 | [Li+] | inactive: -4.57% [at 75.8 µM]
52 | CC(C)=CC1C(C(=O)O)C1(C)C (stereo not given) | inactive: 6.88%
53 | O=c1c(CCc2ccccc2)nc2cncnc2n1Cc1ccc(F)cc1 | inactive: -7.25%
54 | CC(C)(C)C(=O)OCOC(=O)[C@@H]1N2C(=O)[C@@H](N=CN3CCCCCC3)[C@H]2SC1(C)C | inactive: 9.61% [at 75.8 µM]
55 | COc1ccc(CN2CCC(=O)N([C@H](CO)CC(C)C)CC2)cc1OC | inactive: 11.6%
56 | CCOC(=O)C[C@H]1c2ccccc2S(=O)(=O)N1c1cccc(OC)c1 | inactive: 0.554%
57 | CC(CCC(=O)O)C1CCC2C3C(=O)CC4CC(=O)CC[C@@]4(C)C3CC(=O)[C@]12C (stereo not given in full) | inactive: -11.2%
58 | CN(Cc1ccco1)c1cc(-c2ccoc2)ncn1 | inactive: 19.7%
59 | Cc1noc(C)c1-c1nc(N2CCNCC2)c2ccccc2n1 | inactive: 5.34%
60 | Cn1cccc1C(=O)N1CCC2(CCCN(Cc3nccs3)C2)CC1 | inactive: 8.65%
61 | COCC(=O)Nc1cc(C(=O)N2CCOc3ccccc3C2)cc2nc(-c3cccnc3)n(C)c12 | inactive: 14.3%
62 | Cc1cnc(CNc2cc(-c3ccccc3CN(C)C)ncn2)cn1 | inactive: 1.99%
63 | CCCCCCCCCCOCC(O)CN (stereo not given) | inactive: 26.6%
64 | Cc1cc(=O)c(C(=O)NCCc2ccccn2)c2n1-c1ccccc1SC(c1cccs1)C2 (stereo not given) | inactive: 14.7%
65 | C=CC[C@H](c1ccc(F)cc1)N(CC(C)C)S(=O)(=O)C=C | inactive: -27.3%
66 | COc1ccc2cc3[n+](cc2c1OC)CCc1cc2c(cc1-3)OCO2 | inactive
67 | COCc1ccc(CN2CCOc3ccc(C4=Cc5ccccc5C4)cc3C2)o1 | inactive: -6.8%
68 | COCCn1c(=O)c(-c2cccc(C#N)c2)nc2cnc(Oc3ccc(OC)cc3)nc21 | inactive: -10.4%
69 | Nc1ncnc2c1ncn2[C@H]1CC[C@@H](CO)O1 | inactive
70 | O=C(C[n+]1cc(Br)cc2ccccc21)c1ccc(Cl)cc1 | inactive: 7.87%
71 | CC[C@@H]1Cc2cc(O)ccc2C2=C1c1ccc(O)cc1C[C@H]2CC | inactive: -6.11% [at 75.8 µM]
72 | O=C(NCC1(N2CCCCC2)CCCC1)c1cnn(-c2nccc(-c3cccs3)n2)c1C1CC1 | inactive: 6.43%
73 | C[C@@H]1NC(=O)[C@@H](N)CNC(=O)[C@H](C2CCNC(N)=N2)NC(=O)/C(=C/NC(N)=O)NC(=O)[C@H](CNC(=O)C[C@@H](N)CCCN)NC1=O (stereo not given in full) | inactive
74 | CCn1cc(CN2CCOc3ccc(C(O)C4CCCCC4)cc3C2)c(C)n1 (stereo not given) | inactive: 13.8%
75 | COC(=O)N1CCC2(CCN(C(=O)Nc3ccc(OC)cc3)CC2)CC1 | inactive: 19.7%

Row | SMILES | activity change, negative = inhibition
76 | CC(C)CCCC(C)C1CCC2C3CC=C4CC(O)CCC4(C)C3CCC12C (stereo not given) | inactive: 7.19%
77 | Cc1c2oc3c(C)ccc(C(=O)N[C@@H]4C(=O)N[C@H](C(C)C)C(=O)N5CCC[C@H]5C(=O)N(C)CC(=O)N(C)[C@@H](C(C)C)C(=O)O[C@@H]4C)c3nc-2c(C(=O)N[C@@H]2C(=O)N[C@H](C(C)C)C(=O)N3CCC[C@H]3C(=O)N(C)CC(=O)N(C)[C@@H](C(C)C)C(=O)O[C@@H]2C)c(N)c1=O (I: T[dV]P[Sar][NMeV] / II: T[dV]P[Sar][NMeV]; ester I:1-I:C, II:1-II:C; linker I:N-II:N via Actinocin(9to1)) | inactive: 0.796%
78 | O=C1C[C@H]2C=CCc3cccc(c32)CN1Cc1ccc(F)cc1 | inactive: -10.8%
79 | COc1ccc(Oc2ncc3nc(-c4cccs4)c(=O)n(C)c3n2)cc1 | inactive: 7%
80 | N#CCCn1c(=O)c(-c2cccc(C#N)c2)nc2cnc(N3CCOCC3)nc21 | inactive: 34.7%
81 | O=C([C@@H]1CC=C[C@@H]2CCN(C3CC3)C(=O)[C@@H]21)N1CCOCC1 | inactive: 1.53%
82 | CC1C(=O)OC2CC34C5CC(C(C)(C)C)C36C(OC(=O)C6O)OC4(C(=O)O5)C21O (stereo not given) | inactive: 10.4%
83 | CC(C)Cc1ccc([C@@H](C)C(=O)NS(C)(=O)=O)cc1 | inactive: 13.5%
84 | COc1ccc2c(c1)c(CC(=O)OCC(=O)O)c(C)n2C(=O)c1ccc(Cl)cc1 | inactive
85 | O=C1CCN(CCc2ccccc2)CCN1CCOc1ccccc1 | inactive: -16.4%
86 | C=CC[n+]1cccc2cccc(O)c21 | inactive: 16.9%
87 | CC(=NCc1ccccc1)c1ccccc1O | inactive: 7.58%
88 | O=C(C[n+]1ccccc1Cl)c1ccc(Br)cc1 | inactive: -24.3%
89 | NC(=O)c1cc[n+](CC2=C(C(=O)[O-])N3C(=O)[C@@H](NC(=O)Cc4cccs4)[C@H]3SC2)cc1 | inactive: 24.9% [at 75.8 µM]
90 | COc1cc(=O)n2c(c1C(=O)NCc1ccco1)CCN(Cc1ccc3ccccc3c1)CC2 | inactive: 8.2%
91 | Cc1nccn1CC1CCc2c(c3ccccc3n2C)C1=O (stereo not given) | inactive
92 | CN1CCN(c2ncc3nc(-c4ccccc4)c(=O)n(Cc4ccc(F)cc4)c3n2)CC1 | inactive: 6.45%
93 | O=C1C(O)=C(O)C(=O)C(O)=C1O | inactive: -12.4%
94 | O[C@H](CCCN1CCN(c2ncc(F)cn2)CC1)c1ccc(F)cc1 | inactive: 3.82%
95 | CCCCN(CC)CCOc1cccc2ccccc12 | inactive: 18.4%
96 | c1ccc(CCc2nnc3n2CCN(Cc2ccc4ccccc4n2)CC3)cc1 | inactive: 12.6%
97 | CCN(CC)CCOc1ccc(-c2nc3cc(Cl)ccc3s2)cc1 | inactive: 2.85%
98 | CC(C)NC(=O)[C@@H]1C[C@@H](Sc2ccccn2)CN1C1CCN(C)CC1 | inactive: 5.45%
99 | CC1(C)[C@@H]2CC[C@@]1(C)[C@H](OC(=O)CSC#N)C2 | inactive: 2.14%
100 | O=C(c1cc(C(F)(F)F)cc(C(F)(F)F)c1)N1CCC[C@@]2(CCN(Cc3ccccc3)C2)C1 | inactive: -16.9%
